Results: PubChem BioAssay AID588795 (National Center for Advancing Translational Sciences (NCATS), 2011)
Several values for one entry are separate records, joined by “and”; a condition that tells them apart may be missing. Identical values can stand only once. The campaign covered roughly 390,000 compounds. About 1,400 (0.36%) were called active. Inconclusive results, whose numbers are uncertain, are shown with a selection of clear calls. Calls follow the shape of the dose curve; as a rule, active = well fitted inhibition curve with a large enough effect; inconclusive = small, poorly fitted or top-dose-only effect; inactive = no such curve, though single readings can be large or run the other way. Potencies of inconclusive entries are doubtful fits and often do not repeat. Some compounds were tested as several samples or in several runs, with calls that do not always agree.

target: Flap endonuclease 1 (Homo sapiens) (UniProt P39748); assay: qHTS Assay for the Inhibitors of Human Flap endonuclease 1 (FEN1).; also: nearly all actives have a fitted effect of over 65% in size; settings: Recombinant FEN1 flap cleavage, fluorescence, 15 min; series mostly up to 114 µM; activity change, negative = inhibition: at the top concentration
Procedure, shortened: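 FEN1 at 10 nM, compound pretreatment for 15 min (room temperature), 50 nM final substrate to initiate; endpoint reads at 0 and 15 min; DMSO-only plates used as vehicle background.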
% is scaled to controls: 0 for no effect and ±100 for the full control effect; potency is read from the fitted curve at half-maximal effect; tags tell the direction and shape of the fitted curve.

UniProt P39748, sequence (P39748 whole entry, looked up): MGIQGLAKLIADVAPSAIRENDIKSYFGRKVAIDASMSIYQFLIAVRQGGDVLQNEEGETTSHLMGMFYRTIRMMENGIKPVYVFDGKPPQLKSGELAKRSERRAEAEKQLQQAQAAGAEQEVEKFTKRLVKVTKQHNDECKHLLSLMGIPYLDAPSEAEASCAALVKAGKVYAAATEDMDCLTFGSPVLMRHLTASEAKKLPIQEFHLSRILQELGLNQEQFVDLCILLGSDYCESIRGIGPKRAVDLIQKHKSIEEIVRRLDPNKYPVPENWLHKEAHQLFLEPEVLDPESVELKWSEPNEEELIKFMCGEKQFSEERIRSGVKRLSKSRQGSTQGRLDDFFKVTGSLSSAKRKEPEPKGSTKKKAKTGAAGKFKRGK

| Compound | Potency | activity change, negative = inhibition |
| --- | --- | --- |
| CCn1cc2nc(SCc3cccc(C(F)(F)F)c3)n(Cc3ccc(OC)cc3)c(=O)c2n1 | inconclusive: 25.1 µM [inhibitor, partial curve, poor fit] |  |
| CC(C)C[C@H]1C(=O)N2CCC[C@H]2[C@]2(O)O[C@](NC(=O)[C@@H]3C=C4c5cccc6[nH]cc(c56)C[C@H]4N(C)C3)(C(C)C)C(=O)N12 | inconclusive: 12.6 µM [inhibitor, partial curve, poor fit] |  |
| COC[C@H]1OC(=O)c2coc3c2[C@@]1(C)C1=C(C3=O)C2CCC(=O)[C@@]2(C)C[C@H]1OC(C)=O (some centres undefined) | active: 13.4 µM |  |
| [O-]c1ccccc1-[n+]1c(-c2ccccc2)cc(-c2ccccc2)cc1-c1ccccc1 | inconclusive: 79.4 µM [inhibitor, partial curve, poor fit] |  |
| O=C(CI)c1ccc(Cl)cc1 |  | inactive: -0.691% |
| O=C1NC(=O)C(=Cc2ccc(N3CCOCC3)o2)C(=O)N1 |  | inactive: -5.9% |
| CC(C)(C)OC(=O)N(CCc1ccccc1)Cc1ccc(OCc2cccc(NC(=O)c3ccccc3)c2)cc1 | inconclusive: 89.1 µM [inhibitor, single point] |  |
| Cc1ccc(N2C(=O)NC(=O)/C(=C\c3cc(C)n(-c4sc5c(c4C#N)CCCC5)c3C)C2=O)cc1 | inconclusive: 15.8 µM [inhibitor, partial curve, poor fit] |  |
| C[C@@H]1O[C@@H](O[C@H]2C[C@@H](O)[C@]3(CO)[C@@H]4C(CC[C@]3(O)C2)[C@@]2(O)CC[C@H]([C@@H]3COC(=O)C3)[C@@]2(C)C[C@H]4O)[C@H](O)[C@H](O)[C@H]1O (some centres undefined) | inconclusive: 8.44 µM [inhibitor, single point] |  |
| NS(=O)(=O)c1ccc(CCNC(=O)c2ccc(Cl)c(S(=O)(=O)N3CCCCC3)c2)cc1 | inconclusive: 100 µM [inhibitor, single point] |  |
| CN1CCN(c2ccc(S(C)(=O)=O)cc2[N+](=O)[O-])CC1 |  | inactive: 13.6% |
| Cc1ccc2c(c1N)C(=O)c1ccccc1C2=O | inconclusive: 25.1 µM [inhibitor, partial curve, poor fit] |  |
| COc1ccc(-c2cc(=NCCCCCC(=O)O)c3cc(C)ccc3o2)cc1 | inconclusive: 50.1 µM [inhibitor, partial curve] and inconclusive: 44.7 µM [inhibitor, partial curve, poor fit] |  |
| CCCN1CCC(NC2CCC(O)CC2)CC1 (centres undefined) |  | inactive: 4.5% |
| Cc1ccc2cc(C=C(C#N)C#N)c(Cl)nc2c1 | inconclusive: 100 µM [inhibitor, single point] |  |
| Cc1cc(OCC(=O)NCC(O)c2ccccc2)c2c3c(c(=O)oc2c1)CCCC3 (centres undefined) |  | inactive: -26.8% |
| Cc1ccc(Cn2cc(C=O)c3ccccc32)cc1 | inconclusive: 79.4 µM [inhibitor, partial curve, poor fit] |  |
| CNC(=O)Oc1ccc(-c2cn3cc(Cl)ccc3n2)cc1 | inconclusive: 56.2 µM [inhibitor, partial curve, poor fit] |  |
| Cn1c(O)c(C(=Nc2ccccc2)SCc2ccc(Cl)cc2)c(=O)n(C)c1=O | inconclusive: 31.6 µM [inhibitor, partial curve, poor fit] |  |
| Clc1ccc(COC(Cn2ccnc2)c2ccc(Cl)cc2Cl)cc1 (centres undefined) | inconclusive: 35.5 µM [inhibitor, partial curve, poor fit] |  |

| Compound | Potency | activity change, negative = inhibition |
| --- | --- | --- |
| O=c1[nH]c(=O)n(CC2CCCO2)c(O)c1/C=C1\C=Nc2ccccc21 (centres undefined) | inconclusive: 79.4 µM [inhibitor, partial curve, poor fit] |  |
| Cc1cc(C)cc(OCCOc2cccc(C=C3C(=O)NC(=O)NC3=O)c2)c1 | inconclusive: 89.1 µM [inhibitor, single point] |  |
| CN1C(=O)NC(=O)[C@]2(Cc3ccccc3N3CCN(c4ccccc4)CC32)C1=O (some centres undefined) |  | inactive: -8.17% |
| COc1ccc(-c2cc(=Nc3cccc(C(=O)O)c3)c3cc(C)ccc3o2)cc1 | inconclusive: 50.1 µM [inhibitor, partial curve] |  |
| CCOC(=O)N1CCN(C(=O)Cn2ncc3c4ccccc4n(Cc4ccc(F)cc4)c3c2=O)CC1 | inconclusive: 89.1 µM [inhibitor, partial curve, poor fit] |  |
| CCN1C(=O)C(=C/C=C/c2ccco2)C(=O)N(CC)C1=S | active: 22.4 µM |  |
| OC[C@H]1OC(O)C[C@@H](O)[C@@H]1O (some centres undefined) |  | inactive: -4.16% |
| CCOc1nc(NC(C)C)nc(N2CC3CC(C2)c2cccc(=O)n2C3)n1 (centres undefined) | inconclusive: 89.1 µM [inhibitor, single point] |  |
| [O]=[Sb]([OH])([OH])[c]1ccccc1 | active: 50.1 µM |  |
| CCOc1cccc(OCC)c2c(C)[n+](CC3CCCO3)c(C)c1-2 (centres undefined) | inconclusive: 15.8 µM [inhibitor, full curve, poor fit] |  |
| CC[C@H](C)/C=C(C)/C=C/C1=CC2=C(Cl)C(=O)[C@](C)(OC(C)=O)C(=O)C2=CO1 | inconclusive: 15.8 µM [inhibitor, full curve, poor fit] |  |
| O=C(O)c1ccc2c(c1)C1C(Cl)C(Sc3ccccc3[N+](=O)[O-])CC1C(c1cccc([N+](=O)[O-])c1)N2 (centres undefined) | inconclusive: 50.1 µM [inhibitor, partial curve, poor fit] |  |
| CC[C@@H](CO)NC(=O)[C@@H]1C=C2c3cccc4c3c(cn4C)C[C@H]2N(C)C1 | inconclusive: 35.5 µM [inhibitor, partial curve] and inconclusive: 31.6 µM [inhibitor, partial curve, poor fit] |  |
| COc1cc2c(c(OC)c1OC)-c1ccc(OC)c(=O)cc1[C@@H](NC(C)=O)CC2 | inconclusive: 6.7 µM [inhibitor, partial curve, poor fit] |  |
| CCN1CCN(Cc2cc(Br)cc(Br)c2O)CC1 |  | inactive: -2.64% |
| COc1ccc(-c2cc(=NCCC(=O)O)c3cc(C)ccc3o2)cc1 | inconclusive: 50.1 µM [inhibitor, partial curve, poor fit] |  |
| COc1ccccc1N1C(=O)NC(=O)/C(=C/c2ccc3c(c2)Cc2ccccc2-3)C1=O | active: 79.4 µM |  |
| C[CH2][Hg][S]c1ccccc1C(=O)O | active: 22.4 µM |  |
| Cc1ccc(/C=C2\C(=O)NC(=S)N(c3ccccc3F)C2=O)s1 | inconclusive: 50.1 µM [inhibitor, partial curve] |  |
